In all, about 330,000 compounds went through this assay and about 4,200 (1.3%) were called active. This list was built around the results that the source calls inconclusive (neither active nor inactive); the mix of calls is not that of the screen. Calls come from the whole dose curve; as a rule, active = well fitted activation curve with a large enough effect; inconclusive = small, poorly fitted or top-dose-only effect; inactive = no such curve, though single readings can be large or run the other way. Where the call is inconclusive, the potency comes from a doubtful curve fit.
Assay: qHTS screen for small molecules that induce genotoxicity in human embryonic kidney (HEK293T) cells expressing luciferase-tagged ELG1; note: nearly all actives have a fitted effect of over 60% in size
Conditions: HEK293T ELG1-luciferase reporter, luminescence, 16 h; series mostly up to 46 µM
Procedure, shortened: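 Cells (2,000/well) expressing the ELG1-luciferase fusion are dosed by pin tool and kept 16 hr at 37 °C, 5% CO2. Signal comes from ONE-Glo luciferase reagent after 30 min at room temperature.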
Potency is the fitted concentration of half-maximal effect; tags give direction and shape of the fitted curve.

Row | Structure (SMILES) | Potency
1 | CC(C)C(=O)Nc1ccc(NC(=O)c2ccco2)cn1 | inconclusive: 13 µM [activator, single point]
2 | CC(=O)c1c(C)[nH]c(C(=O)Nc2ccc(F)cc2F)c1C | inconclusive: 18.3 µM [activator, partial curve, poor fit]
3 | CCOC(=O)N1CCN(C(=O)c2cc(COc3c(F)cccc3F)on2)CC1 | active: 14.6 µM
4 | Cc1ccc2[nH]c3c(=O)n(Cc4ccncc4)cnc3c2c1 | inactive
5 | Cc1cccc(NC(=S)NC(=O)C2CC2)c1 | inconclusive: 32.6 µM [activator, partial curve, poor fit]
6 | COc1cccc(C(=O)O/N=C(\N)c2ccccn2)c1 | inconclusive: 0.73 µM [activator, partial curve]
7 | Cc1cc(C)cc(OCC(=O)Nc2ccc(-n3cnnn3)cc2)c1 | inactive
8 | COc1cccc(-c2nnc(-c3ccco3)o2)c1 | inconclusive: 4.11 µM [activator, full curve]
9 | O=C(O)CCNC(=O)OCC1c2ccccc2-c2ccccc21 | inactive
10 | CCOc1ccc(-n2c(SCC(=O)Nc3cc(C)on3)nnc2-c2c[nH]c3ccccc23)cc1 | inconclusive: 29.1 µM [activator, partial curve, poor fit]
11 | O=C1C(C=NC2CC2)=C(O)c2ccccc21 | inconclusive: 20.6 µM [activator, single point]
12 | C(=N\c1nc2ccccc2[nH]1)/c1cccs1 | inactive
13 | CCN1CCN(Cc2ccc(NC(=O)Nc3ccccc3)cc2)CC1 | active: 6.51 µM
14 | COC(=O)C1C(=O)c2c([nH]c(C(=O)OCCOC(C)C)c2C)CC1C (stereo not drawn) | inconclusive: 23.1 µM [activator, partial curve, poor fit]
15 | CC(C)CNC(=O)C(=O)NNC(=O)c1ccco1 | inactive
16 | O=C(NCc1ccc(Cl)cc1)c1n[nH]c([N+](=O)[O-])c1Cl | inconclusive: 32.6 µM [activator, partial curve, poor fit]
17 | Oc1c(C(c2ccc(Cl)cc2)N2CCCC2)cc(Cl)c2cccnc12 (stereo not drawn) | inconclusive: 29.1 µM [activator, single point]
18 | COc1cc(C2Nc3ccccc3C(=O)N2c2ccc3c(c2)OCCO3)ccc1OCC(C)C (stereo not drawn) | active: 1.84 µM
19 | N/C(=N\OC(=O)CCCOc1ccc(Cl)cc1Cl)c1ccncc1 | inactive
20 | O=C(C1CCN(S(=O)(=O)c2cccs2)CC1)N1CCCCC1 | inconclusive: 4.61 µM [activator, full curve]
21 | Cc1occc1C(=O)N/N=C/c1ccc(OCc2ccccc2)cc1 | inconclusive: 20.6 µM [activator, single point]
22 | c1cn2c(Nc3ccc4c(c3)OCCO4)c(-c3ccc(N4CCOCC4)cc3)nc2cn1 | inconclusive: 16.4 µM [activator, partial curve]
23 | O=C(CCCCCCN1C(=O)c2ccccc2C1=O)Nc1nccs1 | inactive
24 | N#C/C(=N\Nc1ccccc1)C(=N)N1CCCCC1 | active: 6.51 µM

Row | Structure (SMILES) | Potency
25 | Cc1sc2c(c1C)CN(C1CC(C)(C)NC(C)(C)C1)CN2C(=O)c1ccco1 | inconclusive: 20.6 µM [activator, single point]
26 | O=C(N/N=C/c1ccc(OC(=O)c2ccc3c(c2)OCO3)cc1)c1cncc(Br)c1 | inactive
27 | CCC(C)NC(=O)c1cc(-c2ccc(OC)cc2)on1 (stereo not drawn) | inconclusive: 4.11 µM [activator, single point]
28 | COc1ccc(C(=O)NCCSc2ccccc2)cc1 | active: 2.59 µM
29 | Cc1cc(-c2nc3ccccc3[nH]2)ccc1N | inconclusive: 2.31 µM [activator, partial curve]
30 | Fc1ccc(CSc2nc3ccccc3[nH]2)cc1 | inconclusive: 2.51 µM [activator, partial curve, poor fit]
31 | Nc1nc2c(c(=O)[nH]1)C(c1cccc3ccccc13)C1=C(N2)c2ccccc2C1=O (stereo not drawn) | inactive
32 | COc1ccc(C2CC(c3cccs3)=NN2C(=O)CSc2nc(=O)n3ccccc3n2)cc1 (stereo not drawn) | inconclusive: 20.6 µM [activator, partial curve]
33 | Cc1cc(C(=O)Nc2cnc3ccccc3c2)ccc1[N+](=O)[O-] | inconclusive: 4.11 µM [activator, full curve]
34 | Cc1ccc(C2=NN(S(C)(=O)=O)C(c3ccc4nccnc4c3)C2)cc1 (stereo not drawn) | inconclusive: 16.4 µM [activator, partial curve, poor fit]
35 | CC(=O)Nc1cccc(Oc2ccc3c(c2)C(=O)NC3=O)c1 | inconclusive: 13 µM [activator, partial curve]
36 | CCC(c1nnnn1CCc1ccccc1)N(Cc1ccco1)Cc1cc2c(C)ccc(C)c2[nH]c1=O (stereo not drawn) | inactive
37 | CCc1ccc(NC(=O)c2cnc3scc(C)n3c2=O)cc1 | active: 18.4 µM
38 | O=C(CSc1ccc(Cl)cc1)Nc1ncccn1 | inactive
39 | COC(=O)c1sccc1NC(=O)Nc1ccc(C)cc1 | inconclusive: 9.2 µM [activator, partial curve]
40 | CN(CC(=O)Nc1ccccc1Br)C(=O)c1cc2c(s1)CCCCC2 | inconclusive: 10.3 µM [activator, partial curve, poor fit]
41 | O=C(CSc1nnc2ccc(-c3ccco3)nn12)Nc1ccccc1F | inconclusive: 20.6 µM [activator, single point]
42 | Fc1ccccc1CNc1ncnc2sccc12 | inactive
43 | CCN1CCN(c2ccc(NC(=O)COc3ccc(Cl)cc3C)cc2)CC1 | inactive
44 | Clc1ccsc1-c1ccc2ccccc2n1 | inconclusive: 11.2 µM [activator, partial curve, poor fit]
45 | O=C(CNC(=O)c1ccc2c(c1)OCO2)N/N=C/c1cc(Br)ccc1O | inconclusive: 20.6 µM [activator, partial curve, poor fit]
46 | O=C(Nc1cc(Cl)ccc1N1CCOCC1)c1ccc(Br)o1 | active: 1.16 µM
47 | Cc1c(C)n(Cc2ccccc2)c2ncnc(NN)c12 | inconclusive: 29.1 µM [activator, partial curve, poor fit]
48 | CCCC(=O)Nc1nc2ccc3nc(C)sc3c2s1 | inconclusive: 20.6 µM [activator, partial curve]

From PubChem BioAssay AID504466 (National Center for Advancing Translational Sciences (NCATS), 2011)
